# Measurements published in ChEMBL document CHEMBL3045109, “Inhibitory effect of bionic fungicide 2-allylphenol on Botrytis cinerea (Pers. ex Fr.) in vitro” (Pest Manag Sci, 2009).
# Tested on: Pyricularia grisea
# Test: Fungicidal activity against Magnaporthe grisea grown on PDA medium assessed as inhibition of mycelial growth incubated for 4 to 7 days at 25 degC in presence of 10 mg/L mitochondrial alternative oxidase inhibitor, SHAM
structure (smiles),measurement,value
C=CCc1ccccc1O [2-ALLYLPHENOL],growth inhibition (GI),Active

# The source made the active and inactive calls. The calls are words filed in the database; no cut-off is given here.
